About 1,200 (0.29%) of roughly 410,000 compounds were called active. The inconclusive results got no clear call from the source; some entries with a clear call stand among them for comparison. The call rests on the fitted dose curve; in most records, active means well fitted activation curve with a large enough effect; inconclusive means small, poorly fitted or top-dose-only effect; inactive means flat fitted curve, though single readings scatter. Potencies beside an inconclusive call are fits to weak or partial responses and may not hold up. Residues, ends and D or L forms follow the SMILES beside them. *: point of attachment. Cbz = O=C(OCc1ccccc1)*; CH2Cl = ClC*
Experiment: qHTS of Nrf2 Activators; further: nearly all actives have a fitted effect of over 65% in size; on activation: % of control where 0% means no effect
Settings: AREc32 ARE-luciferase reporter (MCF7-derived line), luminescence, 24 h; activation: at 46.1 µM (top of the series)
Method in brief: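 Reporter line AREc32 (ARE-Fluc), seeded overnight in OPTI-MEM with 5% FBS; compound pin-transferred, 24 hr at 37 deg C, 5% CO2; luminescent read-out.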
For `Cc1c(Cl)cccc1NC(=S)NC(=O)c1ccccc1`, the Potency was inconclusive: 2.51 µM [activator, full curve, poor fit].
In the case of `O=C(OCC1OC(n2ncc(=O)[nH]c2=O)C(OC(=O)c2ccccc2)C1OC(=O)c1ccccc1)c1ccccc1` (stereo not given), the Potency is reported as inconclusive: 25.1 µM [activator, single point].
For `Cc1cc(CC(C)C)n(-c2nc3ccccc3c(=O)n2OCC(=O)N(C)C)n1`, the Potency was “inactive”.
With `Cc1ccc(-n2cc(CN3CCC(CO)(Cc4cccc(C(F)(F)F)c4)CC3)cn2)cc1` the Potency was “inactive”.
For `Fc1ccccc1-c1nc(-c2ccc(Cl)cc2)no1`, the Potency was inconclusive: 6.31 µM [activator, partial curve, poor fit].
In the case of `COc1ccc2c(c1)c1nnc(SC)nc1n2C`, the Potency is reported as inconclusive: 11.2 µM [activator, partial curve].
For `O=S1(=O)C=C(N2CCCCC2)c2ccccc21`, the Potency was active: 12.6 µM.
With `Cc1ccc(S(=O)(=O)C(NC(=O)c2ccccc2)=C(Cl)Cl)cc1` the Potency was inconclusive: 3.55 µM [activator, single point].
For `Cc1ccc(NC(=S)N(CCCN(C)C)Cc2cc3cc4c(cc3[nH]c2=O)OCO4)cc1`, the Potency was “inactive”.
With `c1ccc(-c2nc3c4ccccc4ccn3c2Cc2ccsc2)cc1` the Potency was inconclusive: 4.47 µM [activator, full curve].
In the case of `CN(CCOC(=O)/C=C/c1ccco1)Cc1ccccc1`, the Potency is reported as inconclusive: 17.8 µM [activator, single point].
With `COc1ccc(C(=O)OC(C)C(=O)NC(C)CCc2ccccc2)cc1[N+](=O)[O-]` (stereo not given) the Potency was “inactive”.
For `CC(C)c1ccc(C(C)NC(=O)C2CCCC2)cc1` (stereo not given), the Potency was “inactive”.
For `COC(=O)c1cc(NC(=O)c2cccc(C(F)(F)F)c2)c(=O)oc1C/C=N/OCc1cccc(Cl)c1Cl`, the Potency was active: 12.6 µM.
For `COc1cc(OC)c(-c2nc3ccccc3s2)cc1OC`, the Potency was inconclusive: 2.24 µM [activator, partial curve, poor fit].
For `O=C(Nc1nc(-c2cc(Cl)sc2Cl)cs1)c1cccs1`, the Potency was inconclusive: 14.1 µM [activator, partial curve, poor fit].
For `COc1ccccc1C(=O)Nc1ccc(C(=O)/C=C/c2cccs2)cc1`, the Potency was inconclusive: 31.6 µM [activator, single point].
With `COc1cc(/C=C2\CC(C(C)(C)C)C/C(=C\c3cc(OC)c(OC)c(OC)c3)C2=O)cc(OC)c1OC` (stereo not given) the Potency was inconclusive: 4.47 µM [activator, single point].
In the case of `C=C1C(=O)O[C@H]2C1CC[C@@](C)(O)C13C=CC(C)(C21)C1(C3)C(=O)O[C@@H]2C3C(C)=CCC3[C@](C)(O)C[C@H](OC(C)=O)C21` (stereo not given in full), the Potency is reported as active: 15.8 µM.
In the case of `O=C(CN1CCN(S(=O)(=O)c2ccc(Br)cc2)CC1)N/N=C/c1cc([N+](=O)[O-])ccc1Cl`, the Potency is reported as active: 12.6 µM.
With `Cc1[nH]c2ccccc2c1/C=N/Nc1ccccc1[N+](=O)[O-]` the Potency was inconclusive: 8.91 µM [activator, partial curve, poor fit].
With `CCN1CCOC(=O)C1CC(=O)Nc1cc(Cl)ccc1C` (stereo not given) the Potency was “inactive”.
For `O=[N+]([O-])C(/C=C(/Cl)[N+](=O)[O-])=C(N1CCCCC1)N1CCCCC1`, the Potency was inconclusive: 22.4 µM [activator, single point].
For `FC(F)Sc1ccc(-n2c(-c3ccc(Cl)cc3)c[n+]3c2CCC3)cc1`, the Potency was “inactive”.
For `N#C/C=C\Oc1ccc(Cl)cc1N`, the Potency was inconclusive: 11.2 µM [activator, partial curve, poor fit].
In the case of `Cc1ccc2c(=O)cc(C(=O)NCc3ccccc3)oc2c1C`, the Potency is reported as “inactive”.
For `c1ccc(N2CCCCC2)c(Nc2nc3ccccc3n3cnnc23)c1`, the Potency was “inactive”.
With `Cc1ccc(-c2csc(NC(=O)c3ccc4c(=O)n5c(nc4c3)CCCCC5)n2)cc1` the activation was inactive: 2.61% [at 9.22 µM].
In the case of `O=C1C=C(NCCc2cc(Br)c(O)c(Br)c2)C(=O)c2ncccc21`, the Potency is reported as inconclusive: 4.47 µM [activator, single point].
With `O=C(N/N=C/c1ccc([N+](=O)[O-])o1)c1cccc(S(=O)(=O)N2CCOCC2)c1` the Potency was inconclusive: 17.8 µM [activator, single point].
With `O=C(COC(=O)/C=C/c1ccccc1[N+](=O)[O-])NC1CCS(=O)(=O)C1` (stereo not given) the Potency was inconclusive: 15.8 µM [activator, partial curve, poor fit].
With `Clc1ccc(Br)cc1-c1nc(-c2ccncc2)no1` the Potency was active: 3.98 µM.
In the case of `CCOC(=O)CSc1nc2ccc(NC(=O)COc3ccccc3C)cc2s1`, the Potency is reported as “inactive”.
With `CCOc1cnn(-c2ccccc2)c(=O)c1Cl` the Potency was inconclusive: 17.8 µM [activator, single point].
With `CCOC(=O)Cc1csc(NC(=O)CN2C(=O)c3ccccc3S2(=O)=O)n1` the Potency was “inactive”.
For `COc1ccc(/C=C/C(=O)NCC(=O)N/N=C/c2cc(Br)ccc2OCc2ccccc2)cc1`, the Potency was “inactive”.
For `Cc1cccc(NC(=S)NNc2cccc(Cl)c2)c1`, the Potency was inconclusive: 22.4 µM [activator, single point].
In the case of `COc1cccc(NC(=O)CN(C)C(=O)c2cc(CN3C(=O)c4ccccc4C3=O)ccc2OC)c1`, the Potency is reported as “inactive”.
In the case of `O=S(=O)(Nc1ccccc1)c1ccc(-c2csnn2)cc1`, the Potency is reported as “inactive”.
For `Cc1cc(C)cc(NC(=O)C2CCN(S(=O)(=O)c3cccc(-c4noc(C)n4)c3)CC2)c1`, the Potency was “inactive”.
For `O=C1/C(=C/c2ccco2)CCc2ccccc21`, the Potency was inconclusive: 7.08 µM [activator, full curve, poor fit].
For `CCOc1ccccc1C=C1CCc2ccccc2C1=O`, the Potency was inconclusive: 14.1 µM [activator, partial curve, poor fit].
With `CC(C)CC(NC(=O)OCc1ccccc1)C(=O)NC(Cc1ccccc1)C(=O)CCl` (stereo not drawn) (Cbz-Leu-Phe-CH2Cl; configuration not given here) the Potency was inconclusive: 22.4 µM [activator, single point].
For `CCN(CC)CCNC(=O)c1ccc(-n2c(-c3ccccc3)cc3c2CCCC3)cc1`, the Potency was active: 11.2 µM.
In the case of `Cc1ccccc1NCC(=O)N/N=C/C(Br)=C/c1ccccc1`, the Potency is reported as inconclusive: 17.8 µM [activator, single point].

Source: PubChem BioAssay AID624171 (National Center for Advancing Translational Sciences (NCATS), 2012)
Potency means the concentration at half of the fitted maximal effect; tags describe the fitted curve by direction and shape.
